# Experimental data reported in paper PMC3329507, “GalNAc/Gal-Binding Rhizoctonia solani Agglutinin Has Antiproliferative Activity in Drosophila melanogaster S2 Cells via MAPK and JAK/STAT Signaling” (PLoS ONE, 2012).
# Target: T1, Rhizoctonia solani agglutinin (RSA) (Rhizoctonia solani, UniProt L8WGI4)
# T1 construct: gene AG1IA_08901
# Conditions: 0.7 µM RSA pre-incubated 1 h with 100 mM GalNAc (Figure 2 legend prints 100 µM), then S2 cells 24 h, 27 °C; competitive with cell-surface glycans; indirect read-out
compound,measurement,value
CC(=O)N[C@H]1C(O)O[C@H](CO)[C@H](O)[C@@H]1O (stereo partly shown) [N-acetylgalactosamine],% reduction of antiproliferative activity at 100 mM,~ 70%
